Paper PMC4336329 (PLoS ONE, 2015)
The whole screen tested about 310,000 compounds, of which about 14,000 (4.5%) showed an effect of 50% or more. The effect is printed as a negative number. This is one part of the list.

Each molecule was assayed against human ether-à-go-go-related gene (hERG) potassium channel (human, UniProt Q12809) (assay: primary screen, population patch clamp on CHO cells stably expressing hERG).
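Also: peak tail current of the secondary pulse compared with the same well before compound.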

human ether-à-go-go-related gene (hERG) potassium channel, sequence (Q12809 whole entry, looked up): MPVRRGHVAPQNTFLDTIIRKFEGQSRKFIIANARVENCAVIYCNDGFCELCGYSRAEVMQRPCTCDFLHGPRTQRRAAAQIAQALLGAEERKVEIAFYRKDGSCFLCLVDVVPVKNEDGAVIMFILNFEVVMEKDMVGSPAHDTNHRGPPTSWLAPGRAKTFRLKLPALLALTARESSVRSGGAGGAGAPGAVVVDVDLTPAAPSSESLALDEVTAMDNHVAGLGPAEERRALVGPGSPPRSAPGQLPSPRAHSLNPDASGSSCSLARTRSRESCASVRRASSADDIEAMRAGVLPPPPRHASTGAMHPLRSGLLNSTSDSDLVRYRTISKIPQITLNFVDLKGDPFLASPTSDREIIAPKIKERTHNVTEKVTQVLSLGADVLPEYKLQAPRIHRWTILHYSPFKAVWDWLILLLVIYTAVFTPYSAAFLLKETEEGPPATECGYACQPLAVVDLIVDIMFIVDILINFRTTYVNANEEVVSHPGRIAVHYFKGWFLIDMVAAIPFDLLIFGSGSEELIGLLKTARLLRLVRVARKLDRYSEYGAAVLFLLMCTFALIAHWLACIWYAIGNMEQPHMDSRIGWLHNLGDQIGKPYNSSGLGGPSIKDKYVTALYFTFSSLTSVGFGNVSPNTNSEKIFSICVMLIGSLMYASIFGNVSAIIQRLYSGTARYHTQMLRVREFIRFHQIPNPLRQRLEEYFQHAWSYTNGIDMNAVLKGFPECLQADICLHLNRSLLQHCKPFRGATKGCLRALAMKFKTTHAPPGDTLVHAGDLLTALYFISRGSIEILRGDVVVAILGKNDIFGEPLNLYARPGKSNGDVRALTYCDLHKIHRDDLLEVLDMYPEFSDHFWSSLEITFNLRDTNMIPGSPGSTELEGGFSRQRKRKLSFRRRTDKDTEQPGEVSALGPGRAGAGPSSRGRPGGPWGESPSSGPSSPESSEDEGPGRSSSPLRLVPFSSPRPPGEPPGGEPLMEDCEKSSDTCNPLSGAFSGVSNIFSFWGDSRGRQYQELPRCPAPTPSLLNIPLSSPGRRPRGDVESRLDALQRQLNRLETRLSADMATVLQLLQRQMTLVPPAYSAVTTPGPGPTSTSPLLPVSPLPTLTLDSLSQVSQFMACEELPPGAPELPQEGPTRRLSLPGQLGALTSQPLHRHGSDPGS

| SMILES | hERG current change (%, negative = inhibition) at 10uM [%] |
| --- | --- |
| COc1cc(/C=C2\SC(N)=NC2=O)cc(OC)c1 | 4.6 |
| CCn1c(COc2ccc(C)cc2)nnc1SCC(=O)NCc1ccco1 | -22.1 |
| COc1cccc(C(=O)Cn2c(=O)n(CC3CCCO3)c(=O)c3ccccc32)c1 (centres unmarked) | -10.4 |
| O=C(O)c1cc2c(ccc3ccccc32)[nH]1 | 3.61 |
| COc1ccc(NC(=O)O/N=C/c2ccncc2)cc1 | 22 |
| COc1ccc(CNC(=O)c2c(N)n(CCCN3CCOCC3)c3nc4ccccc4nc23)cc1 | -12.7 |
| Cc1ccc(CNC(=O)CN(c2cccc([N+](=O)[O-])c2)S(C)(=O)=O)cc1 | 0.796 |
| Cl.N=c1sccn1CC(=O)Nc1ccc(SC(F)F)cc1 | -62.1 |
| Cc1ccc(-c2nn(CCC(=O)NN3CCOCC3)c(=O)c3ccccc23)cc1 | -15.9 |
| CCN(C(=O)COC(=O)CNC(=O)c1ccc(F)cc1)C1CCS(=O)(=O)C1 (centres unmarked) | 10.4 |
| CS(=O)(=O)Nc1ccccc1C(=O)c1ccccc1 | 6.76 |
| Cn1c(N)c(C(=O)COC(=O)C2(c3ccc(F)cc3)CCCC2)c(=O)n(C)c1=O | 6.15 |
| CCOc1ccc2nc(NCCCNS(=O)(=O)c3ccc(C)cc3)c(C#N)cc2c1 | -1.41 |
| O=C(Cc1cccs1)Nc1cccc([N+](=O)[O-])c1 | 1.06 |
| Fc1cccc(Cl)c1/C=N/n1c(-c2cccnc2)n[nH]c1=S | 31.3 |
| CC(C)(C)c1ccc(Cn2c(=N)n(CC(O)c3ccco3)c3ccccc32)cc1.Cl (centres unmarked) | -71.9 |
| CCOc1ccc(S(=O)(=O)N2CCCCC2)cc1NC(=O)CCc1ccc(OC)cc1 | 14.4 |
| O=C(O)Cc1c(-c2ccccc2)c2cc(Br)ccc2[nH]c1=O | 12 |
| CCCOc1ccc(N2C(=O)CC(NCC(=O)OCC)C2=O)cc1 (centres unmarked) | 8.44 |
| Clc1ccc2c(c1)C1=C(C(c3ccncc3)O2)C(c2ccc(Br)cc2)n2ncnc2N1 (centres unmarked) | 4.44 |
| Cc1cc(C)c[n+](-c2nc3ccccc3nc2[N-]S(=O)(=O)c2ccc(Cl)cc2)c1 | -6.09 |
| O=C(O)c1ccccc1SCC(=O)N1CCOCC1 | 14.7 |
| CCOC(=O)CNC(=O)c1cc(OC)cc(OC)c1 | 15.2 |

| SMILES | hERG current change (%, negative = inhibition) at 10uM [%] |
| --- | --- |
| COc1cc(CN2CCCCC2C(=O)Nc2ccc(Oc3ccccc3)nc2)ccc1O (centres unmarked) | -4.36 |
| CCc1nnc(NS(=O)(=O)c2ccc(N=Cc3c(O)n(-c4ccccc4)c(=O)[nH]c3=O)cc2)s1 | 13.2 |
| CC(C)CCn1c(-c2nonc2N)nc2ccccc21 | 4.68 |
| O=C(O)C(Cc1ccccc1)Nc1ccc([N+](=O)[O-])cc1[N+](=O)[O-] (centres unmarked) | 19.2 |
| O=C(NC1CCCC1)C(c1ccncc1)N(C(=O)c1csnn1)c1ccc(F)c(Cl)c1 (centres unmarked) | -4.2 |
| CCOc1cc(CNCCO)cc(Br)c1OCc1ccc(Cl)cc1.Cl | -16.5 |
| Cc1ccc(-n2ncc3c(=O)n(CC(=O)NCc4ccco4)cnc32)cc1 | 16.3 |
| CCOC(=O)CN1CC23C=CC(O2)C(C(=O)NCc2ccccc2OC)C3C1=O (centres unmarked) | -22.6 |
| COc1ccc(C(=O)Nc2ccnn2C2CCN(Cc3ccncc3)CC2)cc1 | -8.86 |
| O=C(Nc1ccc(N2CCOCC2)cc1)Nc1ccc2nc(-c3ccco3)c(-c3ccco3)nc2c1 | -17.3 |
| Cc1cc(NC(=O)CSCC(=O)Nc2nc3ccc(F)cc3s2)no1 | 7.74 |
| CCOC(=O)Cc1c(C)nc2c(-c3ccc(Cl)cc3)cnn2c1C | 3.77 |
| Cc1sc2ncnc(N3CCC(C(=O)Nc4ccccc4C(C)(C)C)CC3)c2c1C | -15.2 |
| CCN(CC)Cc1csc(C(N)=O)c1 | 14.6 |
| O=C(Nc1nc2c(F)cc(F)cc2s1)c1ccc([N+](=O)[O-])o1 | 21.1 |
| COc1ccc(Cl)cc1N1Cc2ccccc2C1 | -3.46 |
| CCOC(=O)C1=C(COC(=O)/C=C/c2cccc([N+](=O)[O-])c2)NC(=O)NC1C (centres unmarked) | 11.7 |
| COc1ccc(-c2csc(NC(=O)CN3C(=O)NC4(CCCC4)C3=O)n2)cc1 | -2.27 |
| CC(C)c1ccccc1NC(=O)COc1ccc(C(=O)NCCc2ccccc2)cc1 | -2.08 |
| Cc1cc(C)c(C#N)c(SCC(=O)c2cc(C)n(CCc3ccccc3)c2C)n1 | 18.4 |
| CCCCn1nnnc1NCc1ccc(N2CCCC2)cc1 | -7.72 |
| CCOc1ccccc1NC(=O)c1ccc2c(=O)n3c(nc2c1)CCCCC3 | -58.6 |
| COc1cccc(-c2ccc3ncnc(NCc4cccs4)c3c2)c1 | 3.11 |

| SMILES | hERG current change (%, negative = inhibition) at 10uM [%] |
| --- | --- |
| CCOC(=O)Nc1ccc2c(COC(=O)CN(C)S(=O)(=O)c3ccc(C)cc3)cc(=O)oc2c1 | -7.1 |
| CC1CC(C)CN(S(=O)(=O)c2ccc(NC(=O)[C@@H]3CCCN3C(=O)c3cccs3)cc2)C1 (some centres unmarked) | 1.69 |
| COc1cccc(CNC(=O)CCC2CCCN(C(=O)c3cc(C4CC4)[nH]n3)C2)c1 (centres unmarked) | 14.5 |
| O=C(NNC(=O)c1ccccc1-c1ccccc1C(=O)O)c1ccccc1 | 21.7 |
| O=C(COc1ccccc1)Nc1nc(-c2cccs2)cs1 | 5.72 |
| CC(=O)c1cc2c(cc1NC(=O)Cc1ccsc1)OCO2 | 10.9 |
| CN1CCN(NC(=O)NC2CCCCC2)CC1 | 7.42 |
| COc1ccc(CNC(=S)Nc2ccc(Br)cc2)cc1 | 13.9 |
| CCCOc1ccc(C2CC(=O)Nc3cc(OC)c(OC)cc32)cc1 (centres unmarked) | 13.7 |
| CC(C)C(=O)Nc1cccc(C(=O)Nc2nccs2)c1 | 11.5 |
| CC1(C)NC(=O)N(CC(O)COc2ccc(-c3ccccc3)cc2)C1=O (centres unmarked) | 10.2 |
| O=C(CN1CCOCC1)Nc1nc2ccc(Br)cc2s1 | -50 |
| O=C1CSC(c2cccc(Cl)c2Cl)N1c1ccccn1 (centres unmarked) | 2.52 |
| Nc1ccc(Nc2ccccc2N)cc1 | -12.2 |
| CC(=O)Nc1ccc(SCC(=O)OCC(=O)NC(=O)NC2CCCC2)cc1 | 16.2 |
| CCOCC(=O)Nc1nc(-c2ccccc2)c(CC)s1 | -13.8 |
| CC1(C)C[C@H]2C=C(C=O)[C@]3(C=O)C[C@]3(C)[C@H]2C1 | -20.1 |
| O=C(CN1C(=O)c2cccc3cccc1c23)NCc1cccnc1 | 2.05 |
| O=C1c2cccc3cccc(c23)C(=O)N1c1ccc2ncccc2c1 | 16.9 |
| C/C(=N\NC(=O)c1ccc(Cn2cc([N+](=O)[O-])cn2)o1)c1cccc(NC(=O)C(C)C)c1 | -8.21 |
| COc1ccccc1NC1=C(Cl)C(=O)OC1OC(=O)c1ccco1 (centres unmarked) | 2 |
| COc1cc(C2C(C#N)=C(N)Oc3c2ccc2ccccc32)ccc1OCC(=O)Nc1ccc(C)cc1 (centres unmarked) | 14.9 |
| COc1cc(-c2ccc(NC(=O)NC3CC3)c(OC)c2)ccc1NC(=O)NC1CC1 | 27.9 |

| SMILES | hERG current change (%, negative = inhibition) at 10uM [%] |
| --- | --- |
| CC(=O)/C(=C/Nc1ccc(Oc2ccccc2)cc1)c1ccccc1 | 5.91 |
| CCOc1cc(C(N)=O)cc(Cl)c1OCc1ccccc1 | 14.8 |
| Cc1ccc(C(=O)NCC(=O)Nc2ccc(F)c(F)c2F)cc1 | 25 |
| Cc1c(-c2cc(C(=O)O)no2)cnn1C | 32.4 |
| Cc1ccccc1Nc1nc(N)nc(COc2ccc(C#N)cc2)n1 | -5.4 |
| CSc1oc(-c2ccco2)nc1S(=O)(=O)c1ccc(F)cc1 | -6.22 |
| COc1ccc(-n2c(C)nc3cc(C(=O)O)ccc32)cc1 | 0.926 |
| O=C(NNC(=O)C1CCCCC1)C(=O)NC1CCCCC1 | 0.875 |
| O=C(NCC1CCCO1)/C(=C\c1cccs1)NC(=O)c1ccccc1 (centres unmarked) | 8.62 |
| COCCCNC(=S)NNC(=O)c1csc2ccccc12 | 8.78 |
| CCOC(=O)C1CCCCN1Cc1ccc(-c2ccccc2)cc1 (centres unmarked) | 16 |
| COc1ccc(CNC(=O)c2cc3ccccc3o2)cc1OC | 16.4 |
| CCOC(=O)c1oc2cc(O)ccc2c(=O)c1-c1ccc(OC)cc1 | 5.43 |
| CCNc1ccc(Br)cc(C(=O)/C=C/c2ccc(Cl)cc2Cl)c1=O | 8.28 |
| COc1ccc(-c2cc(C(=O)N(C)Cc3cccc(OC)c3OC)c3ccccc3n2)cc1OC | -28.8 |
| CC(=O)Nc1cccc(C(=O)Nc2ccccc2N2CCOCC2)c1 | -0.962 |
| CC1CCN(S(=O)(=O)c2ccc(C(=O)NCc3ccco3)cc2)CC1 | -9.69 |
| O=C(NNC1CC(=O)N(c2ccc3c(c2)OCCO3)C1=O)c1ccccc1 (centres unmarked) | -1.58 |
| Cc1ccnc(NS(=O)(=O)c2ccccc2)n1 | 7.3 |
| Cc1ccc(S(=O)(=O)N2CCCCC2)cc1NC(=O)COC(=O)c1c(F)cccc1F | -7.29 |
